Source: ChEMBL document CHEMBL4888484, “Replenishing the malaria drug discovery pipeline: Screening and hit evaluation of the MMV Hit Generation Library 1 (HGL1) against asexual blood stage Plasmodium falciparum ,using a nano luciferase reporter read-out” (2022)
The campaign covered roughly 150,000 compounds. About 540 (0.36%) showed an effect of 50% or more. This is one part of the list.

What follows are compounds tested on Plasmodium falciparum (assay: Primary screen in NF54 nanoGlo assay, in single point, at 2uM, 72h; a lower Z score goes with more inhibition). Conditions: timepoint 72 hour.
Type: functional, Erythrocyte

Structure (SMILES)	% Inhibition [%]	Z score
CCc1cc(CNC(=O)N[C@H]2COc3c2ccc(C)c3C)on1	-5	0.69
Cc1c(C(=O)N[C@H]2CC23CC3)c2ccccc2[nH]c1=O	1	-0.21
COc1cccc([C@H]2CC(O)=Nc3c2ncn3-c2ccc(F)cc2)c1	29	-3.23
NC(=O)[C@@H](c1ccc(F)cc1)N1CCc2ccccc21	-17	1.43
Cc1cccc(N2CCN(C(=O)C3CCN(c4ncnc5onc(C)c45)CC3)CC2)c1C	-7	0.91
COc1ccccc1-c1nnc(CC(=O)N[C@@H]2CCCCC[C@H]2O)o1	-3	0.39
N#Cc1cc2c(cc1-c1cc3c(cc1C(=O)C1CC1)OCCO3)OCCO2	-3	0.37
CCn1cc(CCN2C(=O)N[C@@](C)(COC)C2=O)cn1	-2	0.26
CCC#CCN1CCC(CNC(=O)c2c(Cl)cnn2C)CC1	1	-0.13
C[C@@H](Cc1cccnc1)NC(=O)Nc1cn(C)nc1C(F)(F)F	7	-0.73
COc1ccc(CN2CCCN(c3ccc(NC(=O)OCc4ccccc4)cc3)C2=O)cc1	-15	1.44
CCC[C@H]1COCCN1C(=O)c1cccc(-c2cc(C)c(OC)cc2C)c1	-8	1.52
O=C(c1ccco1)N1CCCn2nc(-c3ccncc3)cc2C1	-21	3.95
NC(=NOCc1cnc2ccccc2c1)C1CCCC1	-5	0.56
Cc1nc(Cc2c(C)noc2C)n(-c2ccncc2)n1	-10	1.96
CO[C@@H](CN(C)C1CCN(c2cnccn2)CC1)c1ccccc1	-7	0.84
c1cncc(C2CC(NCc3noc4c3CCCC4)C2)c1 (stereo unspecified)	2	-0.3
Cn1c(=O)c2sccc2n(CC(=O)NC2CCCC2)c1=O	26	-2.99
O=C(c1cnc(-c2ccccn2)nc1O)N1CCN(c2ccc(F)cc2)CC1	1	-0.08
CC(C)Cc1nc(C2(C)COC2)n(-c2ccc3c(c2)OCO3)n1	4	-0.76
Cc1ccc2cc(CN(CCCN3CCCC3=O)C(=O)CC3CCCC3)c(N3CCC[C@H](O)C3)nc2c1	-11	1.41
COc1ccc(S(=O)(=O)NC2(c3noc(C4CC4)n3)CCCC2)cc1	-4	0.45
CC1CN(C(=O)NCc2nccc(C(F)(F)F)n2)C(C)CO1 (stereo unspecified)	-2	0.15
Cc1c(C(=O)Nc2ccccc2)[n+]([O-])cn1-c1ccc(CC(=O)O)cc1	4	-0.68
COc1ccccc1/N=C(/NC(=O)c1ccc(F)cc1)N1CCN(c2cc(C)ccc2C)CC1	-9	1.71
O=C(NCCn1ccc(-c2cnccn2)n1)c1ccco1	20	-2.5
Cn1cncc1C(=O)N1CCCCCC12CN(C(=O)OC(C)(C)C)C2	0	-0.03

Structure (SMILES)	% Inhibition [%]	Z score
CCOC(=O)N1CCC(NC(=O)C(=O)Nc2ccc(OC)c(Cl)c2)CC1	1	-0.1
CC1C(C)S(=O)(=O)CCN1C(=O)NC1CC(c2ccccc2)C1 (stereo unspecified)	-7	1.34
CCNC(=O)C1=CCN(C(=O)NC2CCCCC2)CC1	5	-0.94
C[C@@H](NS(=O)(=O)c1c(F)cccc1F)c1ccc(Cl)cn1	1	-0.17
O=C(Nc1ccc2c(c1)N(C(=O)c1ccccc1)CCC2)c1ccc(F)cc1	7	-0.71
Cc1cc(C)c(S(=O)(=O)N2CCC(C(=O)O[C@@H](C)C(=O)Nc3ccccc3-c3ccccc3)CC2)c(C)c1	-9	1.55
Cn1cncc1C(=O)Nc1ccc(O[C@@H]2CCCC[C@H]2O)cc1	-11	1.1
COc1ccc(S(=O)(=O)N(Cc2cccs2)Cc2cccs2)cc1	31	-3.99
CN(C)C[C@H]1CN(c2ncnc3c2CCC3)CCO1	-4	0.66
COc1ccccc1NC(=O)c1ccc2c(c1)nnn2C1CCCC1	-7	0.93
CCN1CC2(CCN(C(=O)c3ccccc3)CC2)C[C@@H](c2ccccc2)C1=O	-5	0.44
Cc1cc(C(F)(F)F)nn1-c1nccn(C)c1=O	-7	1.12
O=C(O)[C@@H]1CCCN1C(=O)c1ccccc1N1C(=O)[C@@H]2Cc3c([nH]c4ccccc34)C(c3cccc(Cl)c3)N2C1=O (stereo partly specified)	-2	0.27
COc1ccc(CC(=O)Nc2cc(-c3cccnc3)no2)cc1	0	0.04
CC(C)(C)C(=O)NCc1nccnc1-c1ccoc1	21	-2.62
Cc1cn2cc(NC(=O)N[C@H](CCO)c3ccccc3)ccc2n1	-3	0.44
Cc1n[nH]c(C)c1[C@@H](C)CC(=O)N(C)Cc1nccn1CC(F)(F)F	-12	1.45
CN(C)C(=O)Cc1ccc(NS(C)(=O)=O)cc1	0	0.04
CCN(CC1CCOCC1)C(=O)c1ccc(Cl)cn1	-8	1.13
O=C(C(=O)N1CCC2CCCC21)N1CCN(C2CC2)CC1 (stereo unspecified)	2	-0.32
O=C(Nc1nnc(-c2ccc3c(c2)OCO3)o1)c1cccs1	-15	2.16
CC(C)CCn1cc(C(=O)N2CCN(c3cccc(F)c3)C[C@@H]2C)nn1	-1	0.16
CS(=O)(=O)c1ccc2nc(NC(=O)c3cc(=O)[nH]c4ccccc34)sc2c1	-5	0.67
Cc1cc(C)c(C(=O)N2CC3CCCCC3C2)c(=O)[nH]1 (stereo unspecified)	32	-3.61
O=C([C@@H]1CNCCN1C(=O)CCn1nnc2ccccc21)N1CCOCC1	-15	1.87
CC1CC(c2ccccc2F)N(C(=O)CN2CCNCC2=O)C1 (stereo unspecified)	3	-0.35
